# Source: publication PMC4336329 (PLoS ONE, 2015)
# In all, about 310,000 compounds went through this assay and about 2,200 (0.71%) showed an effect of 50% or more. Effects have a minus sign here. Some of the results follow.
# Target: human ether-à-go-go-related gene (hERG) potassium channel (human, UniProt Q12809)
# Test: primary screen, population patch clamp on CHO cells stably expressing hERG
# Sequence of human ether-à-go-go-related gene (hERG) potassium channel (Q12809 whole entry, looked up): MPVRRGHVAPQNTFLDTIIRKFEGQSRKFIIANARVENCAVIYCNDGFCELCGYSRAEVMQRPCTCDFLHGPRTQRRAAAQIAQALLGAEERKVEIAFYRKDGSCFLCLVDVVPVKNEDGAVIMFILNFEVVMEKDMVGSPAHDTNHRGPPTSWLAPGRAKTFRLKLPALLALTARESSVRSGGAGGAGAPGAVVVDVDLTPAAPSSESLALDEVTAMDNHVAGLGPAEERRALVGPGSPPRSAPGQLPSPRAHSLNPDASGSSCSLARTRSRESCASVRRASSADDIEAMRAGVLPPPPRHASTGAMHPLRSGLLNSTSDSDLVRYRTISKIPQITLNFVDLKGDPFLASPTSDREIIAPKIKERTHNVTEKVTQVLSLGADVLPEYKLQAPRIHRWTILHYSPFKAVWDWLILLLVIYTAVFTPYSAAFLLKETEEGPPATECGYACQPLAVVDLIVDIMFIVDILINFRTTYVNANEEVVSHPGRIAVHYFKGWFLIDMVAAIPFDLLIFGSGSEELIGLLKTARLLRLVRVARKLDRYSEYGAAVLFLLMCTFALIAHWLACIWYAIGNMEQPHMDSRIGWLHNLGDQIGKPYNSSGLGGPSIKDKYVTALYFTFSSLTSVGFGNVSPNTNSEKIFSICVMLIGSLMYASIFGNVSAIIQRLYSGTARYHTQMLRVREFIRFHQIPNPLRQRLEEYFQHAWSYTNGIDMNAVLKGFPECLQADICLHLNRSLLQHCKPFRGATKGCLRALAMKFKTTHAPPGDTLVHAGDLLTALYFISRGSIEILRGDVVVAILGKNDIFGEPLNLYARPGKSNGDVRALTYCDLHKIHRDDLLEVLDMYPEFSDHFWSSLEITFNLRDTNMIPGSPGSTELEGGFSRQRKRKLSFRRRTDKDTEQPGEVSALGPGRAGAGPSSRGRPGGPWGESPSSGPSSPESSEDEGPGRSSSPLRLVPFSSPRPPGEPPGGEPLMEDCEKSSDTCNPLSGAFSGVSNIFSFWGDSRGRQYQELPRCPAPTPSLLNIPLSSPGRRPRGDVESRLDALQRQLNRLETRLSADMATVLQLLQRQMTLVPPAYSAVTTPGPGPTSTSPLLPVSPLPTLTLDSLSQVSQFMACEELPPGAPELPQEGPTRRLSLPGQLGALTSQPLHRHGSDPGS
row,Compound,"hERG current change (%, negative = inhibition) at 1uM [%]"
1,CCOC(=O)c1ccc(NC(=O)C(=O)NCC2CCCO2)cc1 (stereo not shown),14
2,CCCCC1=CC2=C(c3ccco3)C(=O)C(C)(OC(=O)c3ccc(OC)cc3)C(=O)C2=CN1CCCCO (stereo not shown),3.37
3,O=C(CSc1nnc(-c2ccncc2)n1-c1ccc(Cl)cc1)N1CCOCC1,4.03
4,CC(C)CC(=O)N1CCN(c2ccc([N+](=O)[O-])cc2Cl)CC1,-8.56
5,COc1ccc(CNc2nc3nc4c(c(=O)n3[nH]2)CCC4)cc1,5.27
6,O=C(CN1CCN(S(=O)(=O)c2ccc(F)cc2)CC1)Nc1ccc2c(c1)OCO2,-8
7,O=C1CC(C(=O)N2CCN(c3ccccc3Cl)CC2)CN1Cc1ccccc1 (stereo not shown),2.1
8,CCCC1=Nc2cc(C(=O)NCCCN3CCN(C)CC3)ccc2Sc2ccccc21,9.88
9,CCCN(CCC)CCCNc1ccc(C(=O)Nc2cccc(OC)c2)cc1[N+](=O)[O-].Cl,-47.6
10,CC1CCC2(CC1)NC(=O)N(Cc1cc(=O)n3ccsc3n1)C2=O (stereo not shown),7.92
11,Cc1cc(C)cc(-c2nnc(SCc3ccc(C(=O)O)cc3)o2)c1,-13.9
12,O=C(NCCc1nnc2ccc(SCC(=O)N3CCCC3)nn12)c1ccccc1,6.23
13,Cl.O.O=C1Cc2ccccc2Sc2c(OCCN3CCCCC3)cccc21,-46.2
14,CCc1ccc(C(=O)NNC(=O)C2CC(=O)N(Cc3ccccc3)C2)cc1 (stereo not shown),-2.06
15,Cc1ccc(NC(=O)NC(=O)CN2C(=O)NC3(CCCCCCC3)C2=O)c(C)c1,16.8
16,CC(C)C1Nc2ccc(S(N)(=O)=O)cc2C2C=CCC21 (stereo not shown),8.92
17,CC(=O)NCCNC(=O)c1ccc2c(c1)S(=O)(=O)c1ccccc1C2=O,11.8
18,CCOc1ccc(N2C(=O)CC(N3CCN(c4ccccc4OC)CC3)C2=O)cc1 (stereo not shown),10.1
19,COc1ccc2c(c1)C1C=CCC1C(c1cc3c(cc1Br)OCO3)N2 (stereo not shown),8.48
20,S=C(NCCCN1CCOCC1)N1CCN(c2cccc(Cl)c2)CC1,0.873
21,O=C(c1n[nH]c(=O)c2ccccc12)N1CCN(c2ccc(F)cc2)CC1,7.48
22,CN1CCc2nc3sc(C(=O)NCc4ccccc4)c(N)c3cc2C1,-12.3

row,Compound,"hERG current change (%, negative = inhibition) at 1uM [%]"
1,O=C(Nc1ccc2ccccc2c1)c1ccc(NS(=O)(=O)c2ccc(Br)s2)cc1,13.8
2,O=C1Nc2c(Br)cc(Br)c3cccc1c23,12.6
3,COc1ccccc1NC(=O)CCCCCN1C(=O)c2cccc3cccc(c23)C1=O,12.1
4,O=C(Cc1ccc(F)cc1)N(c1ccc(F)cc1)C1C=CS(=O)(=O)C1 (stereo not shown),12.4
5,CN1CCN(CC(=O)n2c3c(c4ccccc42)CCCC3)CC1.Cl,9.8
6,Cc1cc(=O)oc2cc(OCC(O)CN3CCN(c4ccc(F)cc4)CC3)ccc12 (stereo not shown),-8.99
7,CCCCCn1c(CN2CC(C)OC(C)C2)nc2c1c(=O)n(C)c(=O)n2C (stereo not shown),7.84
8,Cc1cc(C)c(S(=O)(=O)N(C)CC(=O)NC2CCCC2)c(C)c1,-0.0986
9,Cc1ccc(-n2cc(C(=O)c3cc(Cl)ccc3O)cc(C#N)c2=O)cc1,16
10,CN(Cc1ccccc1)S(=O)(=O)c1ccc2c(c1)n(C)c(=O)c(=O)n2C,8.83
11,O=C(Nc1ccnn1C1CCN(C(=O)c2cccc(C(F)(F)F)c2)CC1)C1CC1,-10.8
12,COc1ccc(/C=C2/N=C(c3cccs3)OC2=O)cc1OC(C)C,14.4
13,O=C(Nc1cccc(C(F)(F)F)c1)N(Cc1ccc(Cl)cc1)CC(O)C(F)(F)F (stereo not shown),5.72
14,CCCCn1nc(CC(=O)NCCN(CC)CC)c2ccccc2c1=O,13.6
15,Cc1cc(/C=C(\C#N)C(=O)NCc2cccs2)c(C)[nH]1,6.87
16,CCOC(=O)C1CCN(C(=O)c2cccc(NS(=O)(=O)c3ccc(F)c(F)c3)c2)CC1,7.17
17,C=CCOc1ccc(-c2nc3c(c(=O)[nH]c(=O)n3CCC)n2CCCC)cc1,7.5
18,COc1ccc2c(c1)OC1(C)CC2C(C(=O)c2ccccc2OC)C(=O)N1 (stereo not shown),10.8
19,Cc1ccnc(N/N=C/c2ccco2)n1,15
20,Clc1ccc(-c2nnc3n2CCCC3)cc1,15.6
21,CCOc1cccc(NCc2cc3c(C(C)(C)C)nn(-c4ccccc4)c3[nH]c2=O)c1,6.67
22,CN1CCN(c2nc(-c3cccnc3)nc3scc(-c4ccccc4)c23)CC1,10.5

row,Compound,"hERG current change (%, negative = inhibition) at 1uM [%]"
1,CC(C)(C)c1ccc(S(=O)(=O)N2CCC(CO)(CC3CCCCO3)CC2)cc1 (stereo not shown),17.4
2,Cc1nc2nc(C)c(CCC(=O)Nc3ccc4c(c3)OCO4)c(C)n2n1,-12.9
3,O=C(O)CCCNC(=O)c1cccc(C(=O)NCCCC(=O)O)n1,14.9
4,CCC(C)[C@H](NC(=O)N1CCn2c1nc1ccccc12)C(=O)NCCc1ccc(OC)c(OC)c1 (stereo partly shown),6.72
5,Cc1ccc(C)c(S(=O)(=O)c2c(C)cc(C)[nH]c2=O)c1,13.7
6,CNC1(c2nnnn2-c2ccccc2C)CCOC(C)(C)C1 (stereo not shown),12.5
7,Cc1ccccc1C(=O)NCC(=O)OC(C)C(=O)Nc1ccnn1C(C)C (stereo not shown),2.62
8,Cc1ccc(C)c(OCCC(=O)NCCc2ccc(S(N)(=O)=O)cc2)c1,13.5
9,CC1(C)Cc2cccc(OCC(=O)Nc3cc(S(C)(=O)=O)ccc3Cl)c2O1,14.1
10,O=C(CSc1nnc(C2CC2)n1-c1ccccc1)NCc1ccco1,9.78
11,COc1ccc(CNC(=O)C2CCN(S(=O)(=O)c3ccc4c(c3)N(C(C)=O)CCO4)CC2)cc1,2.29
12,O=c1[nH]nc(SCCS(=O)(=O)c2ccc(F)cc2)n1-c1ccc2c(c1)OCCO2,6.54
13,Cc1onc(-c2ccccc2)c1C(=O)N/N=C/c1cn(C)c2ccccc12,13.3
14,Cn1c(=O)oc2cc(S(=O)(=O)CCC(=O)N3CCN(c4ccccc4)CC3)ccc21,13.9
15,CC(=O)Nc1ccc(-c2csc(Nc3cc(C)ccn3)n2)cc1,7.02
16,COc1ccc(CC2(C)OC(c3ccncc3)=NN2C(C)=O)cc1 (stereo not shown),-2.54
17,Cn1c(=O)c2c(ncn2CC(=O)OCC(=O)Nc2cc(Cl)ccc2Cl)n(C)c1=O,6.5
18,Cc1c(C)[n+](=O)c(-c2cccs2)c(C)n1[O-],17.7
19,Cc1cccc(C(=O)NC2CCN(C(=O)N3CCOCC3)CC2)c1,20.7
20,COCON1C(=O)CN(C(C)=O)C1c1ccc(Cl)cc1Cl (stereo not shown),11.7
21,COc1cc(C(=O)N2CCN(C(=O)COc3ccc4ccccc4c3)CC2)cc(OC)c1OC,-54
22,Cc1cc(S(N)(=O)=O)c(N)c(S(N)(=O)=O)c1,3.24

row,Compound,"hERG current change (%, negative = inhibition) at 1uM [%]"
1,O=c1cc(-c2ccco2)oc2c1ccc1ccccc12,13.7
2,CCc1noc(C)c1C(=O)N1CCCSC1=Nc1ccccc1Cl,5.35
3,O=C1/C(=C/c2ccc3c(c2)OCO3)N2CCC1CC2,10.6
4,O=C(c1ccc2c(c1)N(Cc1ccc(F)cc1)CCS2)N1CCOCC1,2.29
5,COCCOC(=O)c1c(C)oc2ccc(OC(=O)c3ccco3)cc12,4.56
6,C(=N\Nc1ccc2nncn2n1)/c1ccco1,13
7,O=C(CSCc1c(Cl)cccc1Cl)NCc1cccnc1,8.81
8,Cc1ccc(-n2ncc3c2CCCC3NC(=O)CCN2CCCC2=O)cc1C (stereo not shown),7.02
9,O=C(CCCN1C(=O)c2ccccc2C1=O)Nc1ccc(S(=O)(=O)N2CCOCC2)cc1,9.6
10,CN(C)CCCOC(=O)N1c2ccccc2C=Cc2ccccc21.Cl,15.9
11,OCCNC(=S)Nc1cccc(Cl)c1Cl,10.1
12,CCCc1cc(=O)[nH]c(SCC(=O)Nc2nc(-c3ccccc3)cs2)n1,14.7
13,O=C(/C=C/c1ccc2ccccc2c1)c1ccoc1,14
14,CC(C)CC(COCc1ccc(F)cc1)N1CCN(C(=O)c2cccc(C(F)(F)F)c2)CCC1=O (stereo not shown),-19.8
15,O=C1CCCC/C1=C/Nc1cccc(C(F)(F)F)c1,16.1
16,Cc1ccc(C(=O)OCC(=O)NCCC2=CCCCC2)s1,14.4
17,C=CCNC(=O)/C(C#N)=C/c1c(N2CCN(c3ccc(OC)cc3)CC2)nc2c(C)cccn2c1=O,-0.425
18,COc1cccc(NC(=S)NC(=O)Cc2ccccc2)c1,-3.88
19,c1ccc(C[C@H]2CNCCN2CCC23CC4CC(CC(C4)C2)C3)cc1,5.2
20,Cn1cccc1/C=N\NC(=O)C1COc2ccccc2O1 (stereo not shown),13.7
21,COc1ccccc1NC(=O)CCC(=O)Nc1cc(OC)c(NC(=O)c2cccs2)cc1OC,9.82
22,CC(C)CCOC(=O)C1C2C=CC3(CN(Cc4cccs4)C(=O)C13)O2 (stereo not shown),13.8
